# Reference: the supplement of paper PMC4604168 (melanoma cell lines)
# This is one part of the list. Most values come without repeats; read them as rough.
# Tested on: A101D
# Assay: cell count relative to DMSO control; melanoma cells; higher = more viable cells
# Details: library dose: standard library concentration; 72 h
# 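Further: cells treated in 1,536-well plates, then fixed and DAPI-stained, with nuclei counted from automated high-throughput microscope images.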
row,SMILES,cell count [%]
1,"O=C(Nc1cc(C(F)(F)F)cc(C(F)(F)F)c1)c1cc(Cl)ccc1O + CS(=O)(=O)c1ccc(C(=O)Nc2ccc(Cl)c(-c3ccccn3)c2)c(Cl)c1 [vismodegib] (first compound 0.08 µM, partner dose 5 µM)",133
2,"O=C(Nc1cc(C(F)(F)F)cc(C(F)(F)F)c1)c1cc(Cl)ccc1O + CN(C)S(=O)(=O)c1ccc2c(c1)/C(=C/c1cc3c([nH]1)CCCC3)C(=O)N2 [SU6656] (first compound 0.08 µM, partner dose 2 µM)",58.3
3,"O=C(O)c1ccc2c(c1)nc(Nc1cccc(Cl)c1)c1ccncc12 + COc1cc2c(Oc3ccc4[nH]c(C)cc4c3F)ncnc2cc1OCCCN1CCCC1 [cediranib] (first compound 2 µM, partner dose 2 µM)",73.2
4,"O=C(Nc1cc(C(F)(F)F)cc(C(F)(F)F)c1)c1cc(Cl)ccc1O + Cn1nnc2c(C(N)=O)ncn2c1=O [temozolomide] (first compound 0.08 µM, partner dose 10 µM)",77.7
5,"O=C(O)c1ccc2c(c1)nc(Nc1cccc(Cl)c1)c1ccncc12 + C=C(c1ccc(C(=O)O)cc1)c1cc2c(cc1C)C(C)(C)CCC2(C)C [Bexarotene] (first compound 2 µM, partner dose 10 µM)",78.2
6,"O=C(Nc1cc(C(F)(F)F)cc(C(F)(F)F)c1)c1cc(Cl)ccc1O + CCCCCCCCCCCC1=C(O)C(=O)C=C(O)C1=O [Embelin] (first compound 0.08 µM, partner dose 6 µM)",83.7
